Assay results published in article PMC4336329 (PLoS ONE, 2015).
Hit rate of the full screen: of about 310,000 compounds, about 2,200 (0.71%) showed an effect of 50% or more. Effects have a minus sign here. This is one part of the list.

Target: human ether-à-go-go-related gene (hERG) potassium channel (human, UniProt Q12809)
Assay: primary screen, population patch clamp on CHO cells stably expressing hERG

Sequence of human ether-à-go-go-related gene (hERG) potassium channel (Q12809 whole entry, looked up): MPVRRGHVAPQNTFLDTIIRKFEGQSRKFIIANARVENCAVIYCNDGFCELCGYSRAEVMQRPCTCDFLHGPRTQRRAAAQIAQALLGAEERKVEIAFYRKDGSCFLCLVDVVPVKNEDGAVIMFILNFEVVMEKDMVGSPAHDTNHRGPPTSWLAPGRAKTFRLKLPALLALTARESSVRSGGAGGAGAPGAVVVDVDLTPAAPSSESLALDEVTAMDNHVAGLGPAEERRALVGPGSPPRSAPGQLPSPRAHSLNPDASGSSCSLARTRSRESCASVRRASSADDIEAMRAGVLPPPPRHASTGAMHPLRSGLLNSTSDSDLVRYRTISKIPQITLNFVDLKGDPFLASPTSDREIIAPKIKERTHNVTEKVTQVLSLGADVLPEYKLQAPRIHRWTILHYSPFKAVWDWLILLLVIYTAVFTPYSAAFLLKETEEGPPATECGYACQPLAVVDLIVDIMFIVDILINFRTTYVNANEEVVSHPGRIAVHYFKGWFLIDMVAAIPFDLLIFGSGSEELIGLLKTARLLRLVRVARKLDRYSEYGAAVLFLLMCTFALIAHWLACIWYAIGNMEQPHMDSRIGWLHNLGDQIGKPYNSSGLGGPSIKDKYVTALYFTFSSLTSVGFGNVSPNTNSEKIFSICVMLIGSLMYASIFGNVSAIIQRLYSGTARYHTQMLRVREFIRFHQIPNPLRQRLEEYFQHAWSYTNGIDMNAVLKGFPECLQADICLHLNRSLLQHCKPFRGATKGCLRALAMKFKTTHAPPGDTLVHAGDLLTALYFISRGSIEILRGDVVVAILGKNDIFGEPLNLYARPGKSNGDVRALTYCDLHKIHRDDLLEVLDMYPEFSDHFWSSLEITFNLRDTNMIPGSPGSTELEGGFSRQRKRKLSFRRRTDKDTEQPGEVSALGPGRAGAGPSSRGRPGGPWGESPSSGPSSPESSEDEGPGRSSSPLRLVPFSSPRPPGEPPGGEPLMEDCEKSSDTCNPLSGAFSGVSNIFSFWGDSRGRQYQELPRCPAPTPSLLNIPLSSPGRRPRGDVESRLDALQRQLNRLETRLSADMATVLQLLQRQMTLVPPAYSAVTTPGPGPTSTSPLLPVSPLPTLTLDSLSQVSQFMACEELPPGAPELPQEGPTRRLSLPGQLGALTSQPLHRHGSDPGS

| Structure (SMILES) | hERG current change (%, negative = inhibition) at 1uM [%] |
| --- | --- |
| CCCCn1c(N)c(N(CCC(C)C)C(=O)CSc2nnc(C)s2)c(=O)[nH]c1=O | 1.94 |
| O=C(CN1CCN(S(=O)(=O)c2ccccc2)CC1)Nc1ccccc1C(=O)NC1CC1 | 1.22 |
| Cc1ccc(C)c(C(=O)c2ccccc2NC(=O)c2ccccn2)c1 | 10.7 |
| COCCn1c(=O)[nH]c(=O)c2cc(C(=O)c3cc(OC)ccc3O)cnc21 | 7.1 |
| C=CCN1C(=O)C2(C(C(=O)OCC)=C(N)Oc3c2c(=O)oc2ccccc32)c2ccccc21 (stereo not shown) | 12.9 |
| Cn1c(CCN2CCCCC2)nc2cc(NC(=O)Nc3ccccc3)ccc21 | -2.3 |
| O=C(CSc1nc(-c2ccccc2Cl)ns1)NCc1ccc2c(c1)OCO2 | 15.1 |
| Cc1ccc(-c2nc(C)c(C(=O)O)s2)cc1 | 8.69 |
| COc1ccc(/C=C(\C)C(=O)c2c(C)cc(C)[nH]c2=O)cc1 | 13.2 |
| COc1cccc(NC(=O)CN2CCN(c3ccccc3F)CC2)c1 | -2.33 |
| CC(=O)N1N=C(C)CC1c1ccc(O)cc1 (stereo not shown) | 21.2 |
| COC(=O)Cc1ccc(NC(=S)N2CCCC(CO)C2)cc1 (stereo not shown) | -21.1 |
| CCc1noc(C)c1C(=O)Nc1cc(Cl)ccc1N1CCCC1 | 13.7 |
| CCOC(=O)c1c(C)nc2c(c1-c1ccccc1)C(=O)CCC2 | 5.35 |
| CC(=O)Nc1ccc(C(=O)Nc2ccc(S(=O)(=O)Nc3nccc(C)n3)cc2)cc1 | 12.7 |
| NC(=O)N/N=C/c1ccccc1OC(=O)c1ccccc1Br | 21.3 |
| CC(=O)Nc1cc(C(=O)N2CCC3(CC2)OCCO3)ccc1S(=O)(=O)c1ccc(Cl)cc1 | 8.97 |
| COc1cccc(N2CCN(C(=O)CCC(=O)N3CCOc4ccc(C)cc43)CC2)c1 | 1.11 |
| O=C(Cn1cnnn1)NC1CCCN(Cc2ccccc2F)C1 (stereo not shown) | 13.9 |
| Cc1cc(C)n2nc(S(=O)(=O)Nc3c(Cl)cccc3Cl)nc2n1 | 12.7 |
| O=C(COc1ccc2ccc(=O)oc2c1)N1CC[C@@]2(O)CCCC[C@H]2C1 | 10.1 |
| COc1cc(NC(=O)c2ccc(C)cc2)ccc1NC(=O)c1cc2ccccc2o1 | 14.1 |

| Structure (SMILES) | hERG current change (%, negative = inhibition) at 1uM [%] |
| --- | --- |
| O=S(=O)(c1ccc(F)cc1)N1CCN(c2ncnc3c2cnn3-c2ccccc2)CC1 | 9.52 |
| CCO/C=C1\SC(=S)N(c2ccc(Cl)cc2)C1=O | 23 |
| COc1ccc(OC)c(S(=O)(=O)N2CCC(C(=O)NC(C)c3ccccc3)CC2)c1 (stereo not shown) | 1.22 |
| O=C(OCCOCCN=C1NS(=O)(=O)c2ccccc21)c1ccncc1 | 16.3 |
| COc1ccc(CCNC(=O)CC(C)S(=O)(=O)c2ccc3c(c2)NC(=O)CO3)cc1OC (stereo not shown) | 11.8 |
| N#Cc1c(N)n(CCc2ccc(F)cc2)c2nc3ccccc3nc12 | 19.9 |
| CC(=O)C1=C(O)C(=O)N(Cc2ccco2)C1c1cccc(F)c1 (stereo not shown) | 11.9 |
| Cc1nc2sc(C(c3ccco3)N3CCOCC3)c(O)n2n1 (stereo not shown) | 14.2 |
| O=C(Nc1ccc2snnc2c1)N1CCCCC1 | 8.63 |
| Cc1oc(S(=O)(=O)N2CCCC2)cc1C(=O)Nc1ccc(F)cc1 | 5.08 |
| Cc1nc2cc(Cl)ccc2n1-c1ccccc1 | 3.15 |
| COc1cc2c(cc1OC)C(c1ccccc1Cl)N(C)CC2 (stereo not shown) | 4.56 |
| Cc1ccc2oc(=O)c3cnn(CC(=O)NCCN4CCOCC4)c3c2c1 | 9.71 |
| COCCNC(=O)CCN1N=C(c2ccccc2)CCC1=O | 13.3 |
| CCCc1nnc(SCC(=O)Nc2ccc(Cl)cc2Cl)o1 | 11.6 |
| CC(C)NC(=O)CN1CCN(Cc2nc(C(c3ccccc3)c3ccccc3)no2)CC1 | -7.13 |
| CCN(CC)CCn1c2ccccc2c2cnc(N)c(C#N)c21 | -27.4 |
| Cc1ccc(S(=O)(=O)[N-]c2nc3ccccc3nc2-[n+]2cc(C)cc(C)c2)cc1 | 14.7 |
| COC(=O)Cn1ncc2c3ccccc3n(Cc3ccccc3)c2c1=O | 8.5 |
| CCN(CC(=O)Nc1c(F)cccc1F)C(=O)c1ccc(Cl)c(S(=O)(=O)N2CCCCC2)c1 | 3.56 |
| Cc1cccc(N(C(=O)CNC(=O)c2ccco2)C(C(=O)NCC2CCCO2)c2ccccc2)c1 (stereo not shown) | 5.57 |
| CC(=O)N1CCC(=NNc2nc3ccccc3[nH]2)CC1.O=C(O)C(=O)O | 11.6 |

| Structure (SMILES) | hERG current change (%, negative = inhibition) at 1uM [%] |
| --- | --- |
| O=c1[nH]c(CSc2ccccn2)nc2c1oc1ccccc12 | 15.9 |
| O=C(COc1ccc2ccc(=O)oc2c1)NCCCn1ccnc1 | 5.03 |
| CCOC(=O)C1=C(CS(=O)(=O)c2ccccc2)NC(=O)NC1c1cccc(OC)c1 (stereo not shown) | 13.7 |
| O=C(Cn1ccsc1=NC(=O)C(F)(F)F)c1ccccc1 | 11.2 |
| Cc1cccc(N(C)S(=O)(=O)c2nnc(NC(=O)c3ccco3)s2)c1 | 9.42 |
| O=c1[nH]c2ccccc2s1 | 10.6 |
| CN(C)CCCN(C(=O)COc1ccccc1)c1nc2c(Cl)cccc2s1.Cl | -45.5 |
| C=CCn1c(SCC(=O)NCC2CCCO2)nc2scc(-c3ccc(OC)cc3)c2c1=O (stereo not shown) | 2.79 |
| COc1cccc(CNC(=O)Cc2ccc(-n3c(=O)[nH]c4ccccc4c3=O)cc2)c1 | 7.32 |
| CCOC(=O)[C@H]1NN=C(C(=O)OC)[C@@H]1c1ccccc1 | 5.98 |
| CCCCn1c(N)c(N(CCC(C)C)C(=O)COC(=O)c2cccnc2OCC)c(=O)[nH]c1=O | 7.85 |
| Cc1oc2c(CN3CCOCC3)c(O)ccc2c(=O)c1-c1ccccc1 | 6.91 |
| Cc1ccc(S(=O)(=O)N/N=C/c2ccc(O)cc2O)cc1[N+](=O)[O-] | 1.14 |
| O=C(Nc1nncs1)c1cccnc1Cl | 8.58 |
| O=c1cc(O)c(-c2ccc(Cl)cc2)c(Cl)[nH]1 | 8.51 |
| O=C(Nc1ccc(F)cc1)c1c(Cl)nc2ccccn12 | -2.74 |
| CCc1nnc(NC(=O)CSc2nnc(-c3ccc(S(=O)(=O)N(CC)CC)cc3)n2CC)s1 | 16.2 |
| CC(C)c1ccc(SCc2noc(C(=O)NCC3CCCO3)c2C(=O)O)cc1 (stereo not shown) | 10.2 |
| COc1ccccc1NS(=O)(=O)c1ccc(C)c(C(=O)N2CCCC2)c1 | 6.98 |
| FC(F)(F)c1nc2ccccc2n2c(-c3c(Cl)cccc3Cl)nnc12 | 1.8 |
| c1ccc(-n2nnnc2CN2CCOCC2)cc1 | 21.8 |
| COc1ccc(NC(=O)Cc2nnc(SCC(=O)NC3CCCCC3)n2C)cc1 | 14.8 |

| Structure (SMILES) | hERG current change (%, negative = inhibition) at 1uM [%] |
| --- | --- |
| COc1ccc(OCC(=O)Nc2ccc3c(c2)nc2n3CCSC2)cc1 | 8.57 |
| COCc1cc(C)nc(SCC[N+](C)(C)CC(=O)c2ccccc2)c1C#N.[Br-] | 11.4 |
| CCCc1cc(=O)oc2cc(OCC(=O)NC(Cc3c[nH]c4ccc(O)cc34)C(=O)O)c(Cl)cc12 (stereo not shown) | 11.3 |
| CCOc1ccc2oc(C(=O)O)c(C)c2c1 | 8.96 |
| CC(=O)Nc1ccc(CN2CCCC(C(=O)c3ccc(C(F)(F)F)cc3)C2)cc1 (stereo not shown) | -29.3 |
| COc1ccc(OCC(=O)NNC(=O)c2cccc(C)c2)cc1 | 10.4 |
| Cc1ccc(/C=N/NC(=O)Cn2nc(C)c(Br)c2C)o1 | 0.906 |
| COC(=O)Cc1nnc(SCC(=O)Nc2ccccc2)c2ccccc12 | 6.69 |
| O=C(Nc1cccc(C(F)(F)F)c1)c1cccnc1N1CCCC1 | 8.7 |
| O=C(NC1CCCCC1)c1ccccc1-c1ccccc1 | 3.95 |
| Cc1ccc(SCC(=O)OCn2nnc3ccccc3c2=O)cc1C | 9.41 |
| COc1ccc(-c2nnc3ccc(SC)nn23)cc1 | 1.76 |
| C[C@@H]1CC[C@H]2C(=O)N3[C@@H](CC[C@@H](C)[C@@H]3c3ccc(Br)cc3)C(=O)N2[C@H]1c1ccc(Br)cc1 | 5.38 |
| O=C(O)c1ccnc(C(=O)O)c1 | 0.808 |
| COc1cc(CC(=O)Nc2ccc(N3CCOCC3)cc2)cc(OC)c1OC | 12 |
| CCN(CC)C(=O)C1CC(=O)N(c2ccc(F)c(Cl)c2)C1 (stereo not shown) | 10.5 |
| O=c1c2ccccc2nc(-c2ccc(Cl)cc2Cl)n1-c1nccs1 | 8.11 |
| CS(=O)(=O)N1CCC(C(=O)NCc2ccc(F)cc2)CC1 | 9.31 |
| COc1cc(OC)c(OC)cc1CNCCc1ccc2c(c1)OCO2.O=C(O)C(=O)O | 5.97 |
| CC(C)[C@H](NC(=O)OCc1ccccc1)C(=O)OCC(=O)Nc1c(F)cccc1F | 8.93 |
| Cc1ccc(/C=C/C(=O)OC(C)C(=O)Nc2ccc(Cl)cn2)o1 (stereo not shown) | 11.8 |
| CC(=O)c1ccc(NC2=C(N3CCOCC3)C(=O)c3ccccc3C2=O)cc1 | 2.37 |
